The full ranking holds about 81,000 sequences; the median of “one-hybrid fitness for binding NBS DNA” is about -0.1, and the highest 2% start at about 0.36. The list shows a part of the results.
B1: Caulobacter ParB omega fusion; a variant is named by its letters at X, in order, B8GW30 (parent)
chain: MESVVVGEPGMSEGRRGLGRGLSALLGEVDAAPAQAPGEQLGGSREAPIEILQRNPDQPRRTFREEDLEDLSNSIREKGVLQPILVRPSPDTAGEYQIVAGERAWRAAQRAGLKTVPIMVRELDDLAVLEIGIIENVQRADLNVLEEALSYKVLMEKFERTQENIAQTIGKSXSHVANXMRLLXLPDEVQSYLVSGELTAXHARAIAAAADPVALAKQIIEGGLSVRETEALARKAPNLSAGKSKGGRPPRVKDTDTQALESDLSSVLGLDVSIDHRGSTGTLTITYATLEQLDDLCNRLTRGI

Variants of: B1
Assay: one-hybrid fitness for binding NBS DNA (the Noc-binding site; scaled: cognate 1, non-cognate 0); higher = stronger binding
Conditions: with NBS DNA site
Method in brief: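 The reporter was HIS3, with the binding site 19 bp from the promoter, in E. coli USO used for bacterial one-hybrid selection of Caulobacter ParB libraries with four specificity codons randomised. Growth was on M9 lacking histidine, with 0.1 mM IPTG and 5 mM 3-AT, for 48 hours at 37°C. Illumina sequencing covered plasmids before and after selection; three replicate libraries were pooled and variants with under 10 reads dropped. A fitness score is the log change in variant-to-wild-type read ratio, rescaled to the cognate and non-cognate references.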

one-hybrid fitness for binding NBS DNA, ≤ 0.2:
ELEI
IRQA
QNGA
PAKK
EKLG
QCGM
AGTY
HGVT
ICSC
WTEC
TEDK
NRLS
VLVW
PNFY
AQQS
VRPA
SISM
NHGG
PNTD
YPHM
YHYR
LRVN
VTIG
QIPW
LNGS
WLHV
NWHF
WVAR
QCHL
DPNK
QAVD
KRAE
NLDW
LWNL
LEHG
IICS
CPYD
RTYM
QPMF
RYIC
PWVK
PQYL
QPFG
RNPA
ERKK
LPQN
DCYT
CMHS
QPWG
VPML
ENAW
DDQP
SNLG
IEPC
FIPG
CGSY
GSRI
PPAG
TPMA
ITAF
SLNE
PCIT
HIWV
IECR
FSRF
QEHC
DKHS
AIYN
HPLC
LHPF
NHKI
VNYE
YVRM
FMGS
NMRF
APGF
HSIC
NKWT
KHES
TFGE
YINS
MDRM
TTSS
AVMM
QATI
GKLC
CYNL
IKSK
VCES
WRNM
TTDV
HPAN
HLQR

one-hybrid fitness for binding NBS DNA, 0.476:
QSNT

one-hybrid fitness for binding NBS DNA, 0.204:
QCYC

one-hybrid fitness for binding NBS DNA, 0.728:
RRFR

one-hybrid fitness for binding NBS DNA, 0.514:
RKKA

Source: a collection of fitness landscapes (doi:10.1016/j.celrep.2020.107928)
